PubChem BioAssay (NCI)
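Method: 48-hour compound exposure of cells in 96-well plates, five concentrations, linear interpolation of endpoints. GI50: concentration for 50% inhibition of growth. TGI denotes the concentration required for complete inhibition of growth.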

System: NCI-H322M lung
Assay: growth of human tumour cells (NCI), 48 h

`Cc1cc(NCCCCNc2ccnc3cc(Cl)ccc23)nc(Nc2ccc(C(=O)N3CCCC3)cc2)n1` was tested, and the GI50 was 3.04 µM.

First: Cc1cc(NCCCCNc2ccnc3cc(Cl)ccc23)nc(Nc2ccc(C(=O)N3CCCC3)cc2)n1
Second: CC(C)C(Sc1nc(-c2ccccc2)c(-c2ccccc2)[nH]1)C(=O)N/N=C/c1ccc([N+](=O)[O-])cc1 (stereo unspecified)
The TGI of the first is lower: 11.8 µM for the first, > 100 µM for the second.

Going from `O=C1Nc2ccccc2/C1=C/c1ccccc1` to `O=C1N(CN2CCOCC2)CN(CN2CCOCC2)C(=O)N1Cc1ccccc1`, the TGI rises from 30.7 µM to > 100 µM.

`COc1cc(CNC(=O)[C@H](Cc2ccc(O)cn2)NC(C)=O)cc(OC)c1` was tested, and the TGI was > 100 µM.
